# Experimental data from publication PMC4336329 (PLoS ONE, 2015).
# About 2,200 (0.71%) of roughly 310,000 compounds showed an effect of 50% or more. Effects have a minus sign here. The list shows a part of the results.
# Biological target: human ether-à-go-go-related gene (hERG) potassium channel (human, UniProt Q12809)
# Test: primary screen, population patch clamp on CHO cells stably expressing hERG
# Sequence of human ether-à-go-go-related gene (hERG) potassium channel (Q12809 whole entry, looked up): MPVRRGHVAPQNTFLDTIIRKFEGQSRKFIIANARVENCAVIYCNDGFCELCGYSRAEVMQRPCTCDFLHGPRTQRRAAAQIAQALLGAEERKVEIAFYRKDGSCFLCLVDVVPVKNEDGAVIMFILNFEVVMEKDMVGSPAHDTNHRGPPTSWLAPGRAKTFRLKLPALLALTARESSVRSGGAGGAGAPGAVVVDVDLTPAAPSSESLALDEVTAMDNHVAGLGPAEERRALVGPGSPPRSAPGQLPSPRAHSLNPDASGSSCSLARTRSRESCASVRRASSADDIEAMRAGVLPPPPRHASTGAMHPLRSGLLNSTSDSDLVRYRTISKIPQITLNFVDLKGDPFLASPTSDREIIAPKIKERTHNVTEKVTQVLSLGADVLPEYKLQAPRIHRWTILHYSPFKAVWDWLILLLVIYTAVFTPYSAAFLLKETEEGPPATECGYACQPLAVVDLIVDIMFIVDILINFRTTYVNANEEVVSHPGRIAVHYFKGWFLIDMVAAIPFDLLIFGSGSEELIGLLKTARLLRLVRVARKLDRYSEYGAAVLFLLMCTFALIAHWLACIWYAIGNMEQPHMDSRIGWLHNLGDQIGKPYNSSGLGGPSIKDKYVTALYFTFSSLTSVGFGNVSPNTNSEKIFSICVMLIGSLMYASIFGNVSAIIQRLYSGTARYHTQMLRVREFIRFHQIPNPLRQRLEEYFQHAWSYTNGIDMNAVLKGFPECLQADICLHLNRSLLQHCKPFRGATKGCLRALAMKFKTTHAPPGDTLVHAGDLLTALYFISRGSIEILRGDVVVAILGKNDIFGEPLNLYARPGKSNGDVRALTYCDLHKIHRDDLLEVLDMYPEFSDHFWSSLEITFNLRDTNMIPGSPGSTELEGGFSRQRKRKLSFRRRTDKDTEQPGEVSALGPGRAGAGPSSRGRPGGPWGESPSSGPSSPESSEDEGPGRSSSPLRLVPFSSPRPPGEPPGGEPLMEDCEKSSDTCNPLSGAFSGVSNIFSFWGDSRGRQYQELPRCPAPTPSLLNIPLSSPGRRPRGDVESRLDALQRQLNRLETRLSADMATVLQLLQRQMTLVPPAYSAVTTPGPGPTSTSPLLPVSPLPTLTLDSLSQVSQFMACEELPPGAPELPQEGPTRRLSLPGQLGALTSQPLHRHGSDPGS
row,SMILES,"hERG current change (%, negative = inhibition) at 1uM [%]"
1,Cc1ccc(S(=O)(=O)N2CCN(C(=O)COC(=O)C3CCC3)CC2)c(C)c1,-4.85
2,COc1ccc(F)c(CN2CCC(CO)(Cc3cccc(C(F)(F)F)c3)CC2)c1,-1.43
3,N#Cc1ccc(CO/N=C/c2ccccc2)cc1,14.5
4,Cc1ccc2cc(C#N)c(N3CCN(C(=O)c4cccs4)CC3)nc2c1,-1
5,O=C(NCC(=O)N1CCCC(C(F)(F)F)C1)c1ccc(Br)o1 (centres unmarked),-3.27
6,COc1ccccc1OCCCn1cc(C(C)=O)c2ccccc21,3.53
7,OCC1(Cc2cccc(Cl)c2)CCCN(Cc2cnn(-c3ccccc3)c2)C1 (centres unmarked),-7.31
8,COc1ccc(NC(=O)c2cc3ccccc3oc2=O)c(OC)c1,20.1
9,COc1ccccc1NC(=O)Nc1ccc(Cl)c(S(=O)(=O)Nc2ccccc2OC)c1,5.87
10,Cc1ccc2oc(C(=O)Nc3nnc(CC(C)C)s3)c(C)c2c1,11.5
11,COc1ccc(N2C3=C(CC4=C2CCCC4=O)C(=O)CCC3)cc1,3.34
12,C/C(=N\NC(=O)C1COc2ccccc2O1)c1cc2ccccc2o1 (centres unmarked),15.4
13,Cc1cc(C(=O)N/N=C/c2cccs2)n[nH]1,7.2
14,Cc1nc2ccccc2c(=O)n1Cc1ccc([N+](=O)[O-])cc1,-64.8
15,Cc1ccc(NC(=O)CSc2nc3ccccc3c(=O)n2CCCC(=O)NCC2CCCO2)cc1 (centres unmarked),6.07
16,O=C(CCC(=O)N1CC2C[C@@H](C1)Cn1c2cccc1=O)NCCc1ccccc1F,-0.0918
17,O=C(CNC(=O)c1ccco1)OCC(=O)c1ccc2c(c1)CCCC2,8.93
18,Cc1cccc(S(=O)(=O)c2c(N)n(/N=C/c3ccccc3)c3nc4ccccc4nc23)c1,3.01
19,COn1c(-c2ccc(Cl)cc2Cl)nc2ncccc21,7.52
20,N#Cc1cccc(NC(=O)Cn2cnc(S(=O)(=O)N3CCCCC3)c2)c1,13.4
21,O=C(NCCCn1ccnc1)C(=O)Nc1ccccc1,14.7
22,Cc1cccc(NC(=O)NN2CCN(C)CC2)c1C,17.2
23,O=C(/C=C/c1ccco1)NC(=S)NNC(=O)c1ccco1,13.5

row,SMILES,"hERG current change (%, negative = inhibition) at 1uM [%]"
1,COc1ccc([C@@H]2[C@@H]3C(=O)N(C(C)(C)C)C(=O)[C@@H]3[C@]3(CC(C)C)C(=O)N(c4cccc(F)c4)C(=O)N23)cc1,15.3
2,COc1cc(C(C)=O)ccc1OCC(=O)N(CCC1=CCCCC1)c1c(N)n(Cc2ccccc2)c(=O)[nH]c1=O,15.5
3,COC(=O)c1sccc1NC(=O)Nc1ccc(C)cc1,19.5
4,Cc1ccccc1N1CCN(S(=O)(=O)c2nnc(NC(=O)c3ccco3)s2)CC1,5.64
5,CCn1cc(C(=O)O)c(=O)c2cc(S(=O)(=O)N3CCCCCC3)ccc21,20.1
6,CCOCCCn1c(=S)[nH]c2cc(C(=O)N3CCN(C)CC3)ccc2c1=O,-8.13
7,Cc1ccc(C(=O)OCC(=O)Nc2ccc3[nH]c(=O)[nH]c3c2)cc1S(=O)(=O)N1CCOCC1,8.82
8,CN(C)CC(C(=O)c1ccccc1)c1ccccc1.Cl (centres unmarked),1.95
9,O=C(NC(=S)NC1CCCCCC1)c1cncc(Br)c1,8.87
10,Cc1ccc(NC(=O)CN(C)C(=O)Cc2c(Cl)cccc2Cl)cc1,13.5
11,CC(=O)NCCc1ccc(S(=O)(=O)N(C)C2CCS(=O)(=O)C2)cc1 (centres unmarked),2.98
12,O=C(CSc1cccs1)Nc1ccc(Cl)cc1,13.3
13,CCn1c(SCC(=O)c2[nH]c(C)c(C(C)=O)c2C)nnc1-c1cccs1,-0.905
14,Cc1onc(-c2c(F)cccc2Cl)c1C(=O)ONC(=O)c1ccco1,2.92
15,Cc1ccc(C(=O)Nc2cccc(NC(=O)c3cccnc3)c2)cc1,12.7
16,Cc1ccc(NS(=O)(=O)c2ccc(-c3ccc(=O)[nH]n3)o2)cc1Cl,15.1
17,CC12CCC(=O)N1C(C(=O)NNC(=O)c1ccccc1Cl)CS2 (centres unmarked),11.9
18,COc1cc(CN2CCN(Cc3ccc(C(F)(F)F)cc3)CC2)cc(OC)c1OC.O=C(O)C(=O)O,-17.1
19,Cc1nc2cc(Nc3ccncc3)ccc2s1,-10.3
20,Cc1cc(C)c(S(=O)(=O)Nc2ccc(O)c(Sc3ncn[nH]3)c2)cc1C,8.49
21,COC(=O)c1ccc(NN=Nc2ccc(C)cc2)cc1,8.95
22,Cc1ccc(N2C(=O)C(CN(C)C)C2c2ccccc2)cc1 (centres unmarked),-10.2
23,O=c1[nH]c2ccccc2n1Cc1ccccc1,4.42

row,SMILES,"hERG current change (%, negative = inhibition) at 1uM [%]"
1,CC1=C(C(=O)Nc2ccc(Cl)cc2C(=O)N2CCC(C(N)=O)CC2)SCCO1,11.6
2,O=C(N/N=C1\CC(c2ccccc2)Oc2ccccc21)c1cccnc1 (centres unmarked),5.08
3,O=C(O)c1ccc(/C=N/NC(=O)c2ccc(NS(=O)(=O)c3cccs3)cc2)cc1,13.8
4,O=C(c1cccc(Cl)c1)N1CCN(c2ccccn2)CC1,0.407
5,C/C(=N/NC(=O)CN1CCN(Cc2ccccc2Cl)CC1)c1ccco1,3.89
6,COC(=O)c1ccc(CNC(=O)CSC(C)C(=O)Nc2cc(C)on2)cc1 (centres unmarked),11
7,N/C(=N\OC(=O)c1ccco1)c1cccc(Br)c1,-15
8,COC(=O)c1cccc2nc3c(C(C)O)cccc3nc12 (centres unmarked),11.1
9,CCOCCCNC(=O)c1cccc(NC(=O)C2=C(C)OCCS2)c1,14.9
10,CCCC(=O)Nc1c2c(nc3ccccc13)N(c1ccccc1)CC2,6.34
11,COc1ccc(/C=C(\C#N)C(=O)OCC(=O)NCc2ccco2)cc1,10.1
12,N#CCc1nc2ccccc2c(=O)[nH]1,-3.9
13,O=c1[nH]c(=O)n(CCC2=CCCCC2)c(O)c1C=NCCN1CCNCC1,-2.73
14,Cc1cc(C(=O)NN=C2CCCCCC2)c(C)o1,3.9
15,COC(C/C=C\[C@@H](O)[C@@H](C)OCc1ccccc1)OC,18
16,CCc1cc2c(=O)n(CC(C)C)cnc2s1,0.774
17,Cc1cccc(OCC(=O)Nc2cc(C)ccc2O)c1,14.2
18,C(=N\N(Cc1ccccc1)c1ccccc1)/c1ccco1,15.1
19,CC(Oc1ccc2c3c(c(=O)oc2c1)CCCC3)C(=O)NCCCn1ccnc1 (centres unmarked),36.2
20,CC1(C)CC(=O)N(CC(=O)NC2CCCC2)c2ccccc2S1(=O)=O,13.1
21,CCOC(=O)/C(N)=C/c1ncc(C(F)(F)F)cc1Cl,5.33
22,CSCC[C@H](NC(=O)[C@H](Cc1ccccc1)n1c(=O)[nH]c2ccccc2c1=O)C(=O)N1CCC(C(=O)O)CC1,11.5
23,COc1cc(OC)c(-c2c3cc(O)c(=O)cc-3oc3cc(O)c(O)cc23)cc1OC,12.3

row,SMILES,"hERG current change (%, negative = inhibition) at 1uM [%]"
1,CCOc1cccc2cc(C(=O)Oc3ccc(OC)cc3)c(=O)oc12,14.7
2,CC(=O)c1sc(NC(=O)CSC(C)C(=O)Nc2cc(C)on2)nc1-c1ccccc1 (centres unmarked),3.74
3,COc1ccccc1N1CC=C(c2cccc([N+](=O)[O-])c2)NC1=O,8.94
4,CC(=O)N1CCC2(CC1)C(C#N)=C(N)Oc1n[nH]c(C(F)(F)F)c12,8.24
5,O=C(NCC1CCN(Cc2cccc(Cl)c2)CC1)C1CCCN(c2ncnc3c2nc2n3CCCCC2)C1 (centres unmarked),6.76
6,CCOc1cc(NC(=S)NCCCN2CCOCC2)c(OCC)cc1NC(=O)c1ccccc1,16.1
7,COc1ccccc1COCC(O)CNCCc1ccc(C(F)(F)F)cc1.O=C(O)C(=O)O (centres unmarked),-1.37
8,CCc1ccc(C(=O)N2CCN(S(=O)(=O)c3sc(C(=O)O)c(C)c3C(=O)O)CC2)cc1,9.01
9,C/C(=N\OC(=O)Nc1ccc(Cl)cc1)c1ncc(C(F)(F)F)cc1N1CCOCC1,2.65
10,CCOC(=O)c1cccc(S(=O)(=O)N2CCCC2)c1,10.6
11,CSc1ccccc1OCc1cc(C(=O)NC(C)CCn2cccn2)no1 (centres unmarked),14
12,CCOc1ccccc1NC(=S)N1CCN(c2cccc(C)c2C)CC1,8.82
13,Cc1ccc(OCc2cc(C(=O)N3CCN(CC(=O)NC(C)C)CC3)no2)cn1,17.6
14,COC(=O)c1[nH]c2c(c1C)C(=O)CCC2,13.1
15,CCN(CC)c1ccc2ccc(=O)oc2c1,7.92
16,Cc1ccc(NC(=O)CSc2nnc(-c3ccncc3)n2N)cc1C,12.4
17,O=C1NC2(CCCCO2)CO1 (centres unmarked),16
18,CCN(CC)CCN(C)C(=O)CCc1nnc(-c2ccc(C)s2)o1,9.6
19,Cn1c(=O)c2c(ncn2CC(COCc2ccccc2Cl)OCc2ccccc2Cl)n(C)c1=O (centres unmarked),-1.33
20,O=C(Cc1ccccc1)NNC(=S)NC(=O)c1cccnc1,13.4
